This is one part of the list. The list includes weakly bound sequences.

This experiment has as its target MaxL homodimer (UniProt P61244). Description: universal protein-binding microarray (PBM). The note with it: PBS-based mixture, 10 nM His-tagged protein dimer, 2% milk, 200 ng/uL BSA, 50 ng/uL salmon testes DNA, 0.02% TX-100; detection with Alexa 488 anti-His …; high values mean tight binding; most listed sequences are background and not binding sites; double strand, one strand shown.
UniProt P61244, sequence (P61244 whole entry): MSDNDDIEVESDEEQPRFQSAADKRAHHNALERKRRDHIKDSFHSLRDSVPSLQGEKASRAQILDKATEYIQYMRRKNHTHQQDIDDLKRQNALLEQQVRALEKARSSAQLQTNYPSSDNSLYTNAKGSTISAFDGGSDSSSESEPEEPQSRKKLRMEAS
On to AGATATGC, for which the binding signal (normalized occupancy) turned out to be 0.0791.

Consider CGTAGAAG, for which the binding signal (normalized occupancy) is 0.0721.

For ATGTCACC, the binding signal (normalized occupancy) was found to be 0.08.

In the case of AGCAATTG, the binding signal (normalized occupancy) is 0.0755.

With GCACCCAA, the binding signal (normalized occupancy) was determined as 0.0723.

On to AGCATGTG, for which the binding signal (normalized occupancy) is 0.164.

Consider ACGAAGGG, for which the binding signal (normalized occupancy) came to 0.0698.

As for GTAGCTCA, the binding signal (normalized occupancy) amounted to 0.0764.

In the case of TACCTCCA, the binding signal (normalized occupancy) stood at 0.0756.

Turning to CATTGCGA, the binding signal (normalized occupancy) stood at 0.0768.

As to GAGCCTCA, the binding signal (normalized occupancy) is 0.0757.

Take GTTGCTCA: the binding signal (normalized occupancy) came out at 0.0732.

Consider GTTTTTAA, for which the binding signal (normalized occupancy) came to 0.0713.

Turning to AAATGGAC, the binding signal (normalized occupancy) was 0.0759.

For GGCGTGGA, the binding signal (normalized occupancy) stood at 0.0968.

Turning to ATGCCCTC, the binding signal (normalized occupancy) was determined as 0.0793.

On to ACATTGCT, for which the binding signal (normalized occupancy) turned out to be 0.0763.

On to AATCGCCT, for which the binding signal (normalized occupancy) turned out to be 0.0729.

GTTCGTCA: the binding signal (normalized occupancy) came to 0.0818.

Take CCATTTAC: the binding signal (normalized occupancy) was 0.0773.

As to CAGCCATC, the binding signal (normalized occupancy) was 0.0855.

Consider AGAACAAC, for which the binding signal (normalized occupancy) was determined as 0.0696.

On to ACAATCCC, for which the binding signal (normalized occupancy) was determined as 0.0814.

Regarding CCCGGTTC, the binding signal (normalized occupancy) turned out to be 0.0725.

Turning to CGCGGTGA, the binding signal (normalized occupancy) was 0.0732.

Turning to AACTTAGC, the binding signal (normalized occupancy) came to 0.0701.

As for GCGAGGTA, the binding signal (normalized occupancy) was determined as 0.0769.

Regarding CCCGACAC, the binding signal (normalized occupancy) came to 0.0766.

For CATCTCTA, the binding signal (normalized occupancy) was 0.0817.

For the sequence TCAACCCA, the binding signal (normalized occupancy) was 0.0727.

In the case of ACTTGCTC, the binding signal (normalized occupancy) was 0.0749.

As to TCCTGTAA, the binding signal (normalized occupancy) came out at 0.0741.

As for CCTTGGCG, the binding signal (normalized occupancy) came to 0.0694.

For CCCACACC, the binding signal (normalized occupancy) was 0.0898.

As for ACGCATGC, the binding signal (normalized occupancy) was 0.124.

As to GCCATGAA, the binding signal (normalized occupancy) stood at 0.0745.

CAATACGC: the binding signal (normalized occupancy) turned out to be 0.074.

Regarding AATCAACG, the binding signal (normalized occupancy) is 0.074.

Regarding GACCTAGA, the binding signal (normalized occupancy) was determined as 0.0723.

For CCGAGGCA, the binding signal (normalized occupancy) amounted to 0.0758.

Regarding AATAAAAT, the binding signal (normalized occupancy) came out at 0.0744.

In the case of CGAACCCA, the binding signal (normalized occupancy) is 0.074.

Consider GTACTTAA, for which the binding signal (normalized occupancy) came to 0.0773.

As to GATTTTCC, the binding signal (normalized occupancy) worked out at 0.0699.

For CGTCGGTC, the binding signal (normalized occupancy) was determined as 0.0723.

As for CCCCAGAC, the binding signal (normalized occupancy) is 0.072.

AGGGGGAA: the binding signal (normalized occupancy) came to 0.0821.

ACGCGAAA: the binding signal (normalized occupancy) was found to be 0.0695.

With AGAGGAGC, the binding signal (normalized occupancy) came out at 0.0702.

With CCCTGCAG, the binding signal (normalized occupancy) is 0.0741.

Turning to CGAGCCCG, the binding signal (normalized occupancy) turned out to be 0.0709.

For ATGACGAA, the binding signal (normalized occupancy) is 0.08.

For CCGAACAC, the binding signal (normalized occupancy) came to 0.0746.

For the sequence TCAATAGA, the binding signal (normalized occupancy) was found to be 0.0745.

Take AGAAAGAA: the binding signal (normalized occupancy) came to 0.0717.

Regarding CACCGCAG, the binding signal (normalized occupancy) is 0.0708.

In the case of ATGTAGGG, the binding signal (normalized occupancy) stood at 0.0801.

Consider ACGCAGAC, for which the binding signal (normalized occupancy) was 0.0795.

With ACGATACC, the binding signal (normalized occupancy) amounted to 0.0802.

For the sequence GCCCGAAA, the binding signal (normalized occupancy) was 0.0716.

Take CCAAAGCA: the binding signal (normalized occupancy) was 0.0743.

On to AAGCCATT, for which the binding signal (normalized occupancy) was determined as 0.0716.

For the sequence TCACCTAA, the binding signal (normalized occupancy) amounted to 0.071.

For the sequence ATTAAGAC, the binding signal (normalized occupancy) is 0.0768.

ACTGTCTA: the binding signal (normalized occupancy) was 0.0741.

On to CGCGGAAC, for which the binding signal (normalized occupancy) amounted to 0.0717.

Turning to AGCACATA, the binding signal (normalized occupancy) stood at 0.0807.

Turning to CGCCTGGA, the binding signal (normalized occupancy) was 0.0737.

As to CGAAACCC, the binding signal (normalized occupancy) was found to be 0.0797.

AAGGGCTA: the binding signal (normalized occupancy) stood at 0.0706.

With CGAAGACC, the binding signal (normalized occupancy) was 0.0732.

In the case of CTCACGCA, the binding signal (normalized occupancy) turned out to be 0.0822.

Turning to CCCTATTA, the binding signal (normalized occupancy) is 0.0764.

In the case of ATTGGTAG, the binding signal (normalized occupancy) was 0.0752.

With CCGGTTAC, the binding signal (normalized occupancy) came to 0.0684.

Regarding AAAGGCGC, the binding signal (normalized occupancy) was 0.0655.

As to CCCGGTGC, the binding signal (normalized occupancy) was found to be 0.075.

Consider GCAACCAC, for which the binding signal (normalized occupancy) stood at 0.0744.

For ACGCTCTG, the binding signal (normalized occupancy) is 0.0729.

AACGTAGT: the binding signal (normalized occupancy) was found to be 0.071.

Regarding ATCTAATA, the binding signal (normalized occupancy) was determined as 0.0811.

For ATATGTGA, the binding signal (normalized occupancy) is 0.0878.

For ACGTTAGA, the binding signal (normalized occupancy) turned out to be 0.0821.

TATGGTGA: the binding signal (normalized occupancy) was 0.0762.

As for AAGCTGTG, the binding signal (normalized occupancy) amounted to 0.0731.

For the sequence ATTTAGGA, the binding signal (normalized occupancy) is 0.074.

In the case of AAGTACTA, the binding signal (normalized occupancy) was 0.075.

As to AATCTGCG, the binding signal (normalized occupancy) is 0.0705.

In the case of AGCGAAAT, the binding signal (normalized occupancy) amounted to 0.0722.

Regarding GTATCAAA, the binding signal (normalized occupancy) was 0.0766.

For the sequence GACGGCCC, the binding signal (normalized occupancy) was 0.0691.

In the case of AAGCCGCA, the binding signal (normalized occupancy) came out at 0.0725.

For ATAGTAGA, the binding signal (normalized occupancy) stood at 0.0855.

Regarding CACAGCGG, the binding signal (normalized occupancy) came out at 0.0723.

For the sequence CATCCTAC, the binding signal (normalized occupancy) was determined as 0.0829.

As for AAGTGCAT, the binding signal (normalized occupancy) worked out at 0.085.

In the case of AATAAGAA, the binding signal (normalized occupancy) worked out at 0.0768.

With AACGCAGC, the binding signal (normalized occupancy) stood at 0.0688.

For the sequence GCGACCAA, the binding signal (normalized occupancy) is 0.0697.

With ACGTCAAC, the binding signal (normalized occupancy) turned out to be 0.0789.

On to AGCGAACG, for which the binding signal (normalized occupancy) was 0.0697.

On to GGATCCGA, for which the binding signal (normalized occupancy) turned out to be 0.0733.

Take ATAGCGGG: the binding signal (normalized occupancy) is 0.0752.

Turning to ATAGGGTG, the binding signal (normalized occupancy) was 0.0803.

With GGCGGTAA, the binding signal (normalized occupancy) came to 0.0743.

For ATATAACG, the binding signal (normalized occupancy) came out at 0.0788.

On to GGTTGTAC, for which the binding signal (normalized occupancy) came to 0.0749.

As to GCTGAGAC, the binding signal (normalized occupancy) stood at 0.072.

ATGAAACG: the binding signal (normalized occupancy) was 0.0811.

Turning to GAGGAATA, the binding signal (normalized occupancy) turned out to be 0.0804.

Consider AGAAGGTG, for which the binding signal (normalized occupancy) stood at 0.0734.

GGCACGCC: the binding signal (normalized occupancy) was 0.0877.

Consider CACAAGAA, for which the binding signal (normalized occupancy) stood at 0.0762.

Take AATGAATC: the binding signal (normalized occupancy) was 0.0768.

On to AGTGGTAT, for which the binding signal (normalized occupancy) worked out at 0.0779.

For AGTGATCA, the binding signal (normalized occupancy) is 0.0742.

On to AGGGGCAC, for which the binding signal (normalized occupancy) came to 0.0757.

Consider GATTGAAA, for which the binding signal (normalized occupancy) amounted to 0.0807.

Turning to AAGCGTCG, the binding signal (normalized occupancy) worked out at 0.0714.

Regarding AGGAAGTC, the binding signal (normalized occupancy) is 0.0746.

Take ACGATTGG: the binding signal (normalized occupancy) is 0.0798.

Take ATTGATCA: the binding signal (normalized occupancy) amounted to 0.0751.

Regarding CTAGGCAA, the binding signal (normalized occupancy) is 0.0665.

With GATGGGTA, the binding signal (normalized occupancy) amounted to 0.0854.

For CCTGATCC, the binding signal (normalized occupancy) came out at 0.0777.

As for TTAGCTAA, the binding signal (normalized occupancy) turned out to be 0.0733.

For CCTCAGTA, the binding signal (normalized occupancy) is 0.0673.

As for ACCCTCCC, the binding signal (normalized occupancy) is 0.0812.

Regarding AGAGTACG, the binding signal (normalized occupancy) came to 0.0711.

Consider CGTAGATC, for which the binding signal (normalized occupancy) was determined as 0.0785.

As for AGCAAGAG, the binding signal (normalized occupancy) is 0.0711.

In the case of CCTATTAA, the binding signal (normalized occupancy) came out at 0.0743.

CGTGCTAA: the binding signal (normalized occupancy) turned out to be 0.0881.

For AGTAAATA, the binding signal (normalized occupancy) turned out to be 0.073.

As for GCATAAAC, the binding signal (normalized occupancy) is 0.0764.

On to GACACGGA, for which the binding signal (normalized occupancy) was determined as 0.0754.

For the sequence CCGCGCCA, the binding signal (normalized occupancy) turned out to be 0.0754.

For ACCGCTAC, the binding signal (normalized occupancy) worked out at 0.0748.

Consider TACAAGTA, for which the binding signal (normalized occupancy) turned out to be 0.0813.

TCACTAAA: the binding signal (normalized occupancy) worked out at 0.0781.

As to TAAAACCA, the binding signal (normalized occupancy) came out at 0.0783.

On to CCGCTTAA, for which the binding signal (normalized occupancy) was found to be 0.0692.

With CTGATGTA, the binding signal (normalized occupancy) came to 0.0796.

On to AATATGAA, for which the binding signal (normalized occupancy) amounted to 0.0804.

Regarding CCAAGTTA, the binding signal (normalized occupancy) was found to be 0.0778.

Take ACCAAGCA: the binding signal (normalized occupancy) is 0.081.

In the case of GAGCCCTA, the binding signal (normalized occupancy) is 0.0678.

CTCCTTAA: the binding signal (normalized occupancy) is 0.0723.

As to AAGTCCCT, the binding signal (normalized occupancy) turned out to be 0.0687.

As for AAAAACAC, the binding signal (normalized occupancy) was determined as 0.0787.

On to GAAAATAA, for which the binding signal (normalized occupancy) worked out at 0.0739.

Turning to AAAGCTAC, the binding signal (normalized occupancy) was 0.0713.

For the sequence ATACGAGG, the binding signal (normalized occupancy) was determined as 0.084.

In the case of CCTATAAA, the binding signal (normalized occupancy) came to 0.0756.

Turning to AGCGCTGC, the binding signal (normalized occupancy) stood at 0.068.

On to ACGTTGCT, for which the binding signal (normalized occupancy) is 0.0755.

CTCCCTAC: the binding signal (normalized occupancy) came out at 0.0784.

Regarding CGACAAAA, the binding signal (normalized occupancy) came to 0.0733.

As for CATACCCA, the binding signal (normalized occupancy) is 0.079.

Turning to GAAGCAAA, the binding signal (normalized occupancy) is 0.0716.

Consider AAGCCTTG, for which the binding signal (normalized occupancy) was determined as 0.0708.

ATATTGTC: the binding signal (normalized occupancy) amounted to 0.0781.

Take CAGGAACA: the binding signal (normalized occupancy) was found to be 0.0782.

For GAAGACAC, the binding signal (normalized occupancy) came out at 0.0758.

With ACCAACCA, the binding signal (normalized occupancy) is 0.0767.

As to ATGGAAAT, the binding signal (normalized occupancy) is 0.084.

Take AACACGGA: the binding signal (normalized occupancy) came out at 0.0756.

For the sequence CAGCATTC, the binding signal (normalized occupancy) stood at 0.0775.

Take CGACGGGC: the binding signal (normalized occupancy) was 0.0722.

On to CATGCTCA, for which the binding signal (normalized occupancy) turned out to be 0.099.

For the sequence GATTTCTA, the binding signal (normalized occupancy) was 0.0702.

AATAACCG: the binding signal (normalized occupancy) amounted to 0.0777.
